# Laboratory results: the supplement of paper PMC8728848
# The list shows a part of the results.
# B1: B1567 (Bifidobacterium sp) (protein)
# chain: MKFTTAKKAVALTGAVAMLVSVAACGSDSGKSSQPAQDSDVKEITVWAWEPSLTQVAKDFEKETGIKVDLKNVGTNTKEYTQLDNAIEAGSGAPDVAQVEYYAVPQYAIKGNLLDITDKTSGYKDFYTPGPWASVQFAGKVYGLPMDSGPMAFFYNKEVFDKAGVDAEQIKTWDQYYDAAKKIHALGDNYYITSDTGDAGFFDSMTWLAGAKPFQTSSDGSEVTVNLTEDKGVKTFTDFWQKLLDEGLLDTKTAGWSEDWFKGMVDGTIASLFTGAWMPANLANSAADGAGKWRVTQMPTADGSTTNSENGGSSLAVLASTKKADAAYQFIEYANHGAGVATRVAGGAFPADKASLEKDSFKNATTVKNADGQDVDYFGGQKYNEVLAQAAENVSSGYQFLPFEVKARTIFGDYFGKSYTGDQKLSDGVAAWQKALQDYGKDQGFTVK
# Experiments:
# Experiment in all cases: glycan array binding signal (z-score within array); higher = stronger binding
# Details in all cases: glycan notation: IUPAC condensed, linker removed
# [1] = target: Neu5Ac(a2-6)Gal(b1-4)GlcNAc(b1-6)GalNAc
# Procedure, shortened: (§1)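 Glycan array data were curated from 3228 arrays in the Consortium for Functional Glycomics database and kept only where the protein sequence was available. Glycan names were converted to IUPAC-condensed notation, and columns mapping to the same glycan were averaged. The binding signal is a within-array Z-score, averaged across arrays of the same protein sequence at different concentrations or buffers and across linkers. Negative Z-scores can be read as non-binding.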
# [2] = target: Neu5Ac(a2-6)Gal(b1-4)GlcNAc(b1-6)[Gal(b1-3)GlcNAc(b1-3)]Gal(b1-4)Glc
# Procedure, shortened: as §1
# [3] = target: Neu5Ac(a2-6)Gal(b1-4)GlcNAc(b1-6)[Gal(b1-3)]GalNAc
# Procedure, shortened: as §1
# [4] = target: Neu5Ac(a2-6)Gal(b1-4)GlcNAc6S
# Procedure, shortened: as §1
# Neu5Ac(a2-6)GalNAc = target: Neu5Ac(a2-6)GalNAc
# Procedure, shortened: as §1
# [5] = target: Neu5Ac(a2-6)GalNAc(b1-4)GlcNAc
# Procedure, shortened: as §1
# [6] = target: Neu5Ac(a2-6)GalNAc(b1-4)GlcNAc6S
# Procedure, shortened: as §1
# [7] = target: Neu5Ac(a2-6)GlcNAc(b1-4)GlcNAc
# Procedure, shortened: as §1
# [8] = target: Neu5Ac(a2-6)GlcNAc(b1-4)GlcNAc(b1-4)GlcNAc
# Procedure, shortened: as §1
# Neu5Ac(a2-8)Neu5Ac = target: Neu5Ac(a2-8)Neu5Ac
# Procedure, shortened: as §1
# [9] = target: Neu5Ac(a2-8)Neu5Ac(a2-3)Gal(b1-3)GalNAc(b1-4)[Neu5Ac(a2-3)]Gal(b1-4)Glc
# Procedure, shortened: as §1
# [10] = target: Neu5Ac(a2-8)Neu5Ac(a2-3)Gal(b1-3)GalNAc(b1-4)[Neu5Ac(a2-8)Neu5Ac(a2-3)]Gal(b1-4)Glc
# Procedure, shortened: as §1
# [11] = target: Neu5Ac(a2-8)Neu5Ac(a2-3)Gal(b1-4)Glc
# Procedure, shortened: as §1
# [12] = target: Neu5Ac(a2-8)Neu5Ac(a2-3)Gal(b1-4)GlcNAc
# Procedure, shortened: as §1
# [13] = target: Neu5Ac(a2-8)Neu5Ac(a2-3)[Gal(b1-3)GalNAc(b1-4)]Gal(b1-4)Glc
# Procedure, shortened: as §1
# [14] = target: Neu5Ac(a2-8)Neu5Ac(a2-3)[GalNAc(b1-4)]Gal(b1-4)Glc
# Procedure, shortened: as §1
# [15] = target: Neu5Ac(a2-8)Neu5Ac(a2-8)Neu5Ac
# Procedure, shortened: as §1
# [16] = target: Neu5Ac(a2-8)Neu5Ac(a2-8)Neu5Ac(a2-3)Gal(b1-4)Glc
# Procedure, shortened: as §1
# [17] = target: Neu5Ac(a2-8)Neu5Ac(a2-8)Neu5Ac(a2-3)[Gal(b1-3)GalNAc(b1-4)]Gal(b1-4)Glc
# Procedure, shortened: as §1
# [18] = target: Neu5Ac(a2-8)Neu5Ac(a2-8)Neu5Ac(a2-3)[GalNAc(b1-4)]Gal(b1-4)Glc
# Procedure, shortened: as §1
# [19] = target: Neu5Ac(a2-8)Neu5Ac(a2-8)Neu5Ac(a2-8)Neu5Ac(a2-3)[GalNAc(b1-4)]Gal(b1-4)Glc
# Procedure, shortened: as §1
# [20] = target: Neu5Ac(a2-8)Neu5Gc(a2-3)Gal(b1-4)GlcNAc
# Procedure, shortened: as §1
# [21] = target: Neu5Ac(b2-6)Gal(b1-4)GlcNAc
# Procedure, shortened: as §1
# Neu5Ac(b2-6)GalNAc = target: Neu5Ac(b2-6)GalNAc
# Procedure, shortened: as §1
# [22] = target: Neu5Ac9Ac(a2-3)Gal(b1-3)GlcNAc
# Procedure, shortened: as §1
# [23] = target: Neu5Ac9Ac(a2-3)Gal(b1-4)GlcNAc
# Procedure, shortened: as §1
# [24] = target: Neu5Ac9Ac(a2-6)Gal(b1-4)GlcNAc
# Procedure, shortened: as §1
# [25] = target: Neu5Gc(a2-3)Gal(b1-3)GlcNAc
# Procedure, shortened: as §1
# [26] = target: Neu5Gc(a2-3)Gal(b1-3)[Fuc(a1-4)]GlcNAc
# Procedure, shortened: as §1
# Neu5Gc(a2-3)Gal(b1-4)Glc = target: Neu5Gc(a2-3)Gal(b1-4)Glc
# Procedure, shortened: as §1
# [27] = target: Neu5Gc(a2-3)Gal(b1-4)GlcNAc
# Procedure, shortened: as §1
# [28] = target: Neu5Gc(a2-3)Gal(b1-4)GlcNAc(b1-3)Gal(b1-4)GlcNAc(b1-2)Man(a1-3)[Neu5Gc(a2-3)Gal(b1-4)GlcNAc(b1-3)Gal(b1-4)GlcNAc(b1-2)Man(a1-6)]Man(b1-4)GlcNAc(b1-4)GlcNAc
# Procedure, shortened: as §1
# [29] = target: Neu5Gc(a2-3)Gal(b1-4)[Fuc(a1-3)]GlcNAc
# Procedure, shortened: as §1
# [30] = target: Neu5Gc(a2-6)Gal(b1-4)GlcNAc
# Procedure, shortened: as §1
# Neu5Gc(a2-6)GalNAc = target: Neu5Gc(a2-6)GalNAc
# Procedure, shortened: as §1
# [31] = target: Neu5Gc(a2-8)Neu5Ac(a2-3)Gal(b1-4)GlcNAc
# Procedure, shortened: as §1
# [32] = target: Neu5Gc(a2-8)Neu5Gc(a2-3)Gal(b1-4)GlcNAc
# Procedure, shortened: as §1
# [33] = target: Neu5Gc(a2-8)Neu5Gc(a2-3)Gal(b1-4)GlcNAc(b1-3)Gal(b1-4)GlcNAc
# Procedure, shortened: as §1
binder,measurement,setting,value
B1,glycan array binding signal (z-score),[1],0.003
same,glycan array binding signal (z-score),[2],-0.079
same,glycan array binding signal (z-score),[3],-0.122
same,glycan array binding signal (z-score),[4],-0.094
same,glycan array binding signal (z-score),Neu5Ac(a2-6)GalNAc,-0.111
same,glycan array binding signal (z-score),[5],-0.119
same,glycan array binding signal (z-score),[6],-0.045
same,glycan array binding signal (z-score),[7],-0.072
same,glycan array binding signal (z-score),[8],-0.184
same,glycan array binding signal (z-score),Neu5Ac(a2-8)Neu5Ac,-0.122
same,glycan array binding signal (z-score),[9],-0.17
same,glycan array binding signal (z-score),[10],-0.077
same,glycan array binding signal (z-score),[11],-0.098
same,glycan array binding signal (z-score),[12],-0.129
same,glycan array binding signal (z-score),[13],-0.097
same,glycan array binding signal (z-score),[14],-0.091
same,glycan array binding signal (z-score),[15],-0.16
same,glycan array binding signal (z-score),[16],-0.14
same,glycan array binding signal (z-score),[17],-0.101
same,glycan array binding signal (z-score),[18],-0.116
same,glycan array binding signal (z-score),[19],-0.062
same,glycan array binding signal (z-score),[20],-0.089
same,glycan array binding signal (z-score),[21],-0.054
same,glycan array binding signal (z-score),Neu5Ac(b2-6)GalNAc,-0.144
same,glycan array binding signal (z-score),[22],-0.1
same,glycan array binding signal (z-score),[23],-0.065
same,glycan array binding signal (z-score),[24],-0.122
same,glycan array binding signal (z-score),[25],-0.127
same,glycan array binding signal (z-score),[26],-0.073
same,glycan array binding signal (z-score),Neu5Gc(a2-3)Gal(b1-4)Glc,-0.016
same,glycan array binding signal (z-score),[27],-0.105
same,glycan array binding signal (z-score),[28],-0.066
same,glycan array binding signal (z-score),[29],-0.036
same,glycan array binding signal (z-score),[30],-0.101
same,glycan array binding signal (z-score),Neu5Gc(a2-6)GalNAc,-0.074
same,glycan array binding signal (z-score),[31],-0.035
same,glycan array binding signal (z-score),[32],-0.086
same,glycan array binding signal (z-score),[33],-0.116
